Results taken from PubChem BioAssay (NCI).
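Compound exposure: 48 hours, 5 concentrations, 96-well plates. GI50 = concentration required for 50% inhibition of growth. TGI is the concentration that stops growth completely.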

system: NCI-H322M lung; assay: inhibition of tumour cell growth, NCI panel, 48 h

Compared with `COc1ccc2ccccc2c1/C=C1\SC(=Nc2ccc(O)cc2)NC1=O`, `COc1ccccc1[C@H]1C(C(=O)c2ccc(O)cc2)C2(N[C@@H]1c1ccccc1)C(=O)Nc1ccc(Br)cc12` (some centres not stated) is 3.3-fold higher in GI50: 2.15 µM for the first, 7.1 µM for the second.

Going from `Cc1ccc(-c2cc(C(=O)N=Nc3c(O)[nH]c4ccccc34)c3ccccc3n2)cc1` to `CS(=O)(=O)Nc1cncc(-c2ccc3ncnc(NCc4ccccc4)c3c2)c1`, the GI50 rises from 4.95 µM to 12 µM (2.4-fold).

First: CCCCSc1nc(Nc2ccc(/C(C)=N/NC(N)=S)cc2)c(C#N)c(-c2ccc(F)cc2)n1
Second: C/C(=N\N=C1/C(=O)Nc2ccc(Cl)cc21)c1ccc2c(c1)Nc1ccccc1S2
The GI50 of the first is 5-fold lower: 2.5 µM for the first, 12.5 µM for the second.

`COc1ccc2ccccc2c1/C=C1\SC(=Nc2ccc(O)cc2)NC1=O` and `COc1ccccc1[C@H]1C(C(=O)c2ccc(O)cc2)C2(N[C@@H]1c1ccccc1)C(=O)Nc1ccc(Br)cc12` (some centres not stated) are within 1.5-fold of each other in TGI: 15.9 µM for the first, 14.2 µM for the second.

`Cc1ccc(-c2cc(C(=O)N=Nc3c(O)[nH]c4ccccc34)c3ccccc3n2)cc1` and `CS(=O)(=O)Nc1cncc(-c2ccc3ncnc(NCc4ccccc4)c3c2)c1` are within 1.5-fold of each other in TGI: 27.1 µM for the first, 26.8 µM for the second.

First: CCCCSc1nc(Nc2ccc(/C(C)=N/NC(N)=S)cc2)c(C#N)c(-c2ccc(F)cc2)n1
Second: C/C(=N\N=C1/C(=O)Nc2ccc(Cl)cc21)c1ccc2c(c1)Nc1ccccc1S2
The TGI of the first is 2.6-fold lower: 16.8 µM for the first, 43.2 µM for the second.
